# Measurements taken from PubChem BioAssay AID463173 (ICCB-Longwood Screening Facility, Harvard Medical School, 2010).
# Among all 52,000 compounds or so, about 1,700 (3.3%) were called active. Rule as the data show it: active = survival mostly below about 52% (no sharp cut-off); inactive = mostly above about 56%. Some of the results follow.
# Test system: Wild type
# Assay: S. aureus survival, RN4220 and DeltatarO strains – OD600, teichoic acid synthesis inhibitors, primary screen (AID 463173)
# Settings: S. aureus RN4220 wild type/DeltatarO growth, OD600, 18 h, active compounds read low, screened at 18.75 µg/mL (by protocol)
row,SMILES,survival
1,Cc1ccc(CCNC(=O)C2CC(=O)N(CCc3ccc(C)cc3)C2)cc1 (configuration not stated),inactive: 75%
2,CC1CCCCN1C(=O)C1COc2ccccc2O1 (configuration not stated),inactive: 105%
3,O=C1C2C3C=CC(C3)C2C(=O)N1c1ccc2c(c1)OCO2 (configuration not stated),inactive: 94%
4,NC(=O)C1CCN(C(=O)CSc2nccc(-c3ccccc3)n2)CC1,inactive: 92%
5,O=C(NCc1ccccc1)C1CCN(c2ncnc3c2nc2n3CCCCC2)CC1,inactive: 82%
6,COc1ccc(C)cc1NC(=O)CSc1nc(=O)n(Cc2ccco2)c2c1CCC2,inactive: 135%
7,Cc1ccc(-n2cc(-c3ccccc3)c3c(N4CCC(C)CC4)ncnc32)cc1Cl,inactive: 91%
8,CCCCc1ccc(NC(=O)Cn2cnc3c(oc4ccccc43)c2=O)cc1,inactive: 100%
9,O=C(NCc1ccc(Cl)cc1)c1ccc2c(c1)nnn2C1CCCC1,inactive: 76%
10,CCCC(=O)Nc1ccc(NC(=O)c2ccc(OC)cc2)cn1,inactive: 99%
11,Cc1nc2nc(NCc3ccccc3Cl)[nH]n2c(=O)c1Cc1ccccc1,inactive: 86%
12,O=C(Nc1ccccc1OCc1cc(=O)n2ccccc2n1)Nc1ccccc1C(F)(F)F,inactive: 83%
13,CCOC(=O)c1cnc2c(C)cc(C)cc2c1NCCN1CCOCC1,inactive: 53%
14,CCCSC1=NC2(CCN(C(=O)NC3CCCCC3)CC2)N=C1c1ccc(C)cc1,inactive: 73%
15,Cc1ccc(C)c(OCc2nc3ccccc3n2C)c1,inactive: 85%
16,Cc1ccccc1NC(=O)CSc1nc2c(oc3ccccc32)c(=O)n1Cc1ccco1,inactive: 77%
17,CN1CCN(NC(=O)c2ccc(Cl)cc2)CC1,inactive: 118%
18,COCCNC(=O)c1cn(C(C)c2ccccc2)nn1 (configuration not stated),inactive: 118%
19,COc1cc(C(=O)Nc2ccc3nc(SCc4ccccc4)sc3c2)cc(OC)c1OC,inactive: 86%
20,Cc1c2cnn(CC(=O)Nc3cccc(C(F)(F)F)c3)c(=O)c2c(C)n1Cc1ccccc1Cl,inactive: 85%
21,O=C1CC(Sc2ncccc2C(=O)O)C(=O)N1 (configuration not stated),inactive: 110%
22,CCOC(=O)N1CCc2c(sc3c2c(=O)n(-c2ccc(CC)cc2)c(=O)n3CC(=O)c2ccc(F)cc2)C1,inactive: 91%
23,COc1ccccc1/C=C/c1nc(C#N)c(N(C)C)o1,inactive: 89%
24,O=C(c1cc2ncc(Br)cn2n1)N1CCCCC1,inactive: 119%
25,Cc1c2cnn(CC(=O)NC(C)C)c(=O)c2c(C)n1Cc1ccccc1Cl,inactive: 87%
26,CCN(C(=O)CSc1nc2ccccc2n1Cc1cc(C)ccc1C)c1ccccc1,inactive: 72%
27,Cc1ccc(C(=O)NCC(c2cccs2)S(=O)(=O)c2cccs2)cc1 (configuration not stated),inactive: 85%
